The campaign covered roughly 370,000 compounds. About 150 (0.041%) were called active. Inconclusive means that the source gave no clear call. Such entries were picked first, then a sample of the others. Calls follow the shape of the dose curve; as a rule, active = well fitted inhibition curve with a large enough effect; inconclusive = small, poorly fitted or top-dose-only effect; inactive = flat fitted curve, though single readings scatter. No potency is given beside an inconclusive call; the fits are too rough.
target: Beta-lactamase (Escherichia coli (strain K12)) (UniProt P00811); assay: qHTS Inhibitors of AmpC Beta-Lactamase (assay with detergent); details: AmpC hydrolysis of nitrocefin, absorbance 480 nm, 0.01% Triton; series mostly up to 114 µM; also: nearly all actives have a fitted effect of over 25% in size
Chain of UniProt P00811 (P00811 whole entry, looked up): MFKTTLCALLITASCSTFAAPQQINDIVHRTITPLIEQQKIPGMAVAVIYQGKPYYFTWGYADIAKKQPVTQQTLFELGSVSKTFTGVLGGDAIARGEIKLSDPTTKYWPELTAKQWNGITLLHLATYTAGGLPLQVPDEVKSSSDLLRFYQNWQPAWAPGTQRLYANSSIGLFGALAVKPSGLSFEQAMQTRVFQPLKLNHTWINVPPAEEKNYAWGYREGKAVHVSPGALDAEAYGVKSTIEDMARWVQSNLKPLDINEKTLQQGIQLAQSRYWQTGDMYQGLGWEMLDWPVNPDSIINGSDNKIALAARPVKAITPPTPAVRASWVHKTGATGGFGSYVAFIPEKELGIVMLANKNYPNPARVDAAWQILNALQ
In short: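 AmpC (5.3 nM in the dispensed reagent) in 20 mM phosphate pH 7.0 with 0.01% (detergent screen) or 0.0001% Triton X-100 was preincubated with compounds for 15 min at room temperature. Nitrocefin was then added from an 800 uM solution, and hydrolysis was followed at 480 nm.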
Potency is read from the fitted curve at half-maximal effect; tags tell the direction and shape of the fitted curve.

| SMILES | Potency |
| --- | --- |
| Cc1ccc(/C=N/NC(=O)C[n+]2ccccc2)s1 | inactive |
| CCOC(=O)CN(C(=O)CSc1nnc(Cc2ccccc2)n1-c1ccc(C)cc1)c1ccccc1 | inconclusive [inhibitor, partial curve, poor fit] |
| C[C@H](NC(=O)N1CCC(Cc2ccccc2)CC1)C(=O)O | inactive |
| O=C(CNc1cccc(S(=O)(=O)N2CCOCC2)c1)N1CCc2ccccc21 | inactive |
| COCC(=O)Nc1sc2c(c1C(=O)OC)CCCC2 | inconclusive [inhibitor, full curve, poor fit] |
| C=CCNC(=O)c1c(N)n(-c2ccc3c(c2)OCO3)c2nc3ccccc3nc12 | inconclusive [inhibitor, full curve, poor fit] |
| S=C1NC2=C(CCC/C2=C\c2ccc(Cl)cc2)C(c2ccc(Cl)cc2)N1 (centres undefined) | inactive |
| COc1ccccc1NC(=O)NCC1CC1(Cl)Cl (centres undefined) | inconclusive [inhibitor, full curve, poor fit] |
| CC1CC(=O)c2c(cc3c(-c4c(O)cc(O)c5c(O)c6c(cc45)OC(C)CC6=O)c(O)cc(O)c3c2O)O1 (centres undefined) | inactive |
| CC(C)OCCCNC(=O)c1ccc2c(=O)n(Cc3ccc4c(c3)OCO4)c(=S)[nH]c2c1 | inconclusive [inhibitor, single point] |
| CCC1=[N+](C)CCn2c(C)ccc21 | inconclusive [inhibitor, full curve, poor fit] |
| CCOC(=O)N1CCN(C(=O)CSc2nnc(-c3cccc(Cl)c3)o2)CC1 | inconclusive [inhibitor, full curve, poor fit] |
| CCOC(=O)c1c(C)[nH]c(C(=O)CN2C(=O)NC(C)(c3ccc4ccccc4c3)C2=O)c1C (centres undefined) | inconclusive [inhibitor, full curve] |
| CCOC(=O)c1c(C)[nH]c(N=Nc2ccc(OC)cc2)c1C | inactive |
| CC(=O)N1CCc2c(sc3c2c(=O)n(-c2ccccc2)c(=O)n3CC(=O)c2ccc(F)cc2)C1 | inactive |
| CCc1ccccc1NC(=O)c1noc(C(C)C)c1[N+](=O)[O-] | inactive |
| CC(=O)c1cn(CCOc2ccccc2C)c2ccccc12 | inconclusive [inhibitor, full curve, poor fit] |
| CCc1ccccc1NC(=S)/N=C(\N)Nc1nc(C)c2cc(C)ccc2n1 | inconclusive [inhibitor, partial curve, poor fit] |
| c1ccc(CSc2nnc(SCc3ccccn3)s2)nc1 | inconclusive [inhibitor, full curve, poor fit] |
| CC(=O)Nc1ccc(NC(=O)CSc2nc(N)c(NC(=O)c3ccccc3F)c(=O)[nH]2)cc1 | inactive |
| Cn1c(C(=O)OC(C(=O)NCC2CCCO2)c2cccnc2)cc2sccc21 (centres undefined) | inactive |
| COCCn1nnnc1CN1C2CCCC1CC(NC(C)=O)C2 (centres undefined) | inconclusive [inhibitor, full curve, poor fit] |

| SMILES | Potency |
| --- | --- |
| CCCCOc1ncnc2c1[nH]c1ccc(OCC)cc12 | inconclusive [inhibitor, full curve, poor fit] |
| CCOc1ccc(C(=O)Cn2cnnc2C#N)cc1 | inconclusive [inhibitor, full curve, poor fit] |
| O=C1NC2(CCCCC2)C(=O)N1/N=C/c1ccc(O)cc1O | inactive |
| COc1ccc(Cc2nc3ccc(C(=O)NCCCSC)cc3o2)cc1OC | inconclusive [inhibitor, partial curve] |
| O=C(c1cccc(Cl)c1)N1CCN(Cc2ccncc2)CC1 | inconclusive [inhibitor, full curve, poor fit] |
| Cc1nc(SCC(=O)NCc2ccco2)[nH]c(=O)c1C | inconclusive [inhibitor, single point] |
| O=C(O)C1OC2OC3(CCCCC3)OC2C2OC3(CCCCC3)OC12 (centres undefined) | inconclusive [inhibitor, partial curve] |
| O=C(COc1ccc(Cl)cc1Cl)N1CCCC1 | inactive |
| O=C(CS(=O)(=O)c1ccccc1)N1CCCCC1 | inconclusive [inhibitor, full curve] |
| CCCCCCC(=O)Nc1c2c(nc3ccccc13)N(C)CC2 | inconclusive [inhibitor, full curve, poor fit] |
| COc1cc(/C=c2\sc3nc(-c4ccncc4)nn3c2=O)ccc1OC(C)=O | inconclusive [inhibitor, single point] |
| Cn1nnnc1SCCCNCc1cc(Cl)ccc1OCc1ccccc1 | inactive |
| COCCn1nnnc1CN(CCCN1CCOCC1)Cc1cc2c(C)ccc(C)c2[nH]c1=O | inactive |
| CCOc1ccc(N/C(N)=N/c2nc(CSc3nnnn3-c3ccccc3)cc(=O)[nH]2)cc1 | inconclusive [inhibitor, single point] |
| COc1ccc2c(c1)O[C@H](c1ccc3c(c1)OCO3)[C@@H](OC(=O)N[C@H](C)C1CCCCC1)C2=O | inconclusive [inhibitor, partial curve, poor fit] |
| CNC(=O)c1cc(Nc2nnc(C)c3ccccc23)ccc1OC | inactive |
| N#CC1=C(SCC(=O)Nc2nccs2)NC(=O)CC1c1ccccc1 (centres undefined) | inconclusive [inhibitor, single point] |
| COCCN1CCN(C(=O)c2ccc3oc(CCc4ccccc4)nc3c2)CC1 | inactive |
| COc1ccc(/C(O)=C/c2nc3ccc(C(=O)NCCc4cccc(C)c4)cc3[nH]c2=O)cc1OC | inconclusive [inhibitor, full curve] |
| O=C(N/N=C/C(Br)=C/c1ccccc1)c1ccc([N+](=O)[O-])cc1 | inconclusive [inhibitor, single point] |
| COC(=O)c1c(-c2cccnc2)csc1NC(=O)c1cc(C)on1 | inconclusive [inhibitor, partial curve, poor fit] |
| O=C(c1ccc2nc(-c3ccco3)c(-c3ccco3)nc2c1)N1CCN(c2ncccn2)CC1 | inconclusive [inhibitor, full curve, poor fit] |
